Results on three compounds are retold here after PMC10892984, “Novel Antineoplastic Inducers of Mitochondrial Apoptosis in Human Cancer Cells” (Molecules, 2024).

The test system of this assay is NCI-H322M. The conditions noted are these: for GI50 / CC50: Homo sapiens, 48 h; for CC50: read-out: LC50; for TGI: non-small-cell lung cancer, mutant p53, 48 h.

The structures appear in SMILES notation. Bounds are passed on as bounds.

Usually GI50 stands for the concentration at which growth is held to half of that of the control. Higher therefore signals lower sensitivity of the cells. For orientation: TGI means the concentration giving total growth inhibition.

For the compound `c1cc(CNC23CC4CC(CC(C4)C2)C3)cc(C[N+](Cc2cccc(CNC34CC5CC(CC(C5)C3)C4)c2)(Cc2cccc(CNC34CC5CC(CC(C5)C3)C4)c2)Cc2cccc(CNC34CC5CC(CC(C5)C3)C4)c2)c1` (stereo not shown) [Compound 1, tetrakis{3-[(tricyclo[3.3.1.1^3,7]decan-1-ammonio)methyl]benzyl}ammonium pentachloride], growth was halved (GI50) at 1.26 µM, the CC50 was 16 µM and the TGI was 5.10 µM.

Consider `COc1cc2c(c(OC)c1OC)-c1ccc(NNC(N)=S)c(=O)cc1C(NC(C)=O)CC2` [Compound 2, N-[(aS,7S)-10-(2-carbamothioylhydrazinyl)-1,2,3-trimethoxy-9-oxo-5,6,7,9-tetrahydrobenzo[a]heptalen-7-yl]acetamide monohydrate × ⅔ (ethyl acetate)], for which it took 0.619 µM to inhibit growth by half (GI50), the CC50 was over 100 µM and the TGI is given as over 100 µM.

Consider `COc1cc2c(c(OC)c1OC)-c1ccc(NNC(=S)N(Cc3cccc(C[N+](Cc4cccc(CNC56CC7CC(CC(C7)C5)C6)c4)(Cc4cccc(CNC56CC7CC(CC(C7)C5)C6)c4)Cc4cccc(CN(C(=S)NNc5ccc6c(cc5=O)C(NC(C)=O)CCc5cc(OC)c(OC)c(OC)c5-6)C56CC7CC(CC(C7)C5)C6)c4)c3)C34CC5CC(CC(C5)C3)C4)c(=O)cc1C(NC(C)=O)CC2` [Compound 3, [(bis{3-[(tricyclo[3.3.1.1^3,7]decan-1-ylamino)methyl]benzyl}ammonio)bis(methanediylbenzene-3,1-diylmethanediyl)]di-2-[(aS,7S)-7-(acetylamino)-1,2,3-trimethoxy-9-oxo-5,6,7,9-tetrahydrobenzo[a]heptalen-10-yl]-N-(tricyclo[3.3.1.1^3,7]decan-1-yl)hydrazinecarbothioamide chloride pentahydrate], for which the concentration for total growth inhibition (TGI) is 7.03 µM.
